The text below walks through data of publication PMC11724110.

The chains behind the UniProt entries cited, without tags or fusion partners. Where a name states a change or a piece, a line headed by the entry shows the natural chain unless it says otherwise. A line that says so, or that is headed by a name, gives the form on record, which may keep a tag or linker. Residues count along the entry.
UniProt O35433: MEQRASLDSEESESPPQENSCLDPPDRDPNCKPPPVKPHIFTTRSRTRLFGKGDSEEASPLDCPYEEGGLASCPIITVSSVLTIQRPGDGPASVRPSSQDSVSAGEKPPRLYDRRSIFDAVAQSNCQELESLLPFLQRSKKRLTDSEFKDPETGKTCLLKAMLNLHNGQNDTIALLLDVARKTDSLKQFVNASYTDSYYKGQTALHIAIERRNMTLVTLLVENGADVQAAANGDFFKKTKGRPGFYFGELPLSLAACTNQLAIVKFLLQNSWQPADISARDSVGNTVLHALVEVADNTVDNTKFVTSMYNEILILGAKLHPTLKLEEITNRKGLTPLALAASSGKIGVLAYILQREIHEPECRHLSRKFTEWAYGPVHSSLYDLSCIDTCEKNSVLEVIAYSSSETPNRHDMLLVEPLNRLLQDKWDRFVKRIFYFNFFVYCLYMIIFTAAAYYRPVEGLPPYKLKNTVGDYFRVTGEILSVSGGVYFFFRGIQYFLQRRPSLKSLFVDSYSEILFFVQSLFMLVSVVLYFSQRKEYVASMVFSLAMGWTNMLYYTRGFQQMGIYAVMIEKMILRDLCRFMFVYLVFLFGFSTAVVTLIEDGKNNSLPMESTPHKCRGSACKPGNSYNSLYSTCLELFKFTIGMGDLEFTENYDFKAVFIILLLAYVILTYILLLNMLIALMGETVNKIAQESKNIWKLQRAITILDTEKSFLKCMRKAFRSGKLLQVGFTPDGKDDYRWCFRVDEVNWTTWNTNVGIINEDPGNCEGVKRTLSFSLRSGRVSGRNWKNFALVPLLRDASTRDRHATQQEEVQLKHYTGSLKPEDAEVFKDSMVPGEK
Flag-tagged TRPV1 N-terminus (aa 1-432): residues 1-432 of O35433
Flag-tagged TRPV1 C-terminus (aa 687-839): residues 687-838 of O35433
UniProt Q704Y3: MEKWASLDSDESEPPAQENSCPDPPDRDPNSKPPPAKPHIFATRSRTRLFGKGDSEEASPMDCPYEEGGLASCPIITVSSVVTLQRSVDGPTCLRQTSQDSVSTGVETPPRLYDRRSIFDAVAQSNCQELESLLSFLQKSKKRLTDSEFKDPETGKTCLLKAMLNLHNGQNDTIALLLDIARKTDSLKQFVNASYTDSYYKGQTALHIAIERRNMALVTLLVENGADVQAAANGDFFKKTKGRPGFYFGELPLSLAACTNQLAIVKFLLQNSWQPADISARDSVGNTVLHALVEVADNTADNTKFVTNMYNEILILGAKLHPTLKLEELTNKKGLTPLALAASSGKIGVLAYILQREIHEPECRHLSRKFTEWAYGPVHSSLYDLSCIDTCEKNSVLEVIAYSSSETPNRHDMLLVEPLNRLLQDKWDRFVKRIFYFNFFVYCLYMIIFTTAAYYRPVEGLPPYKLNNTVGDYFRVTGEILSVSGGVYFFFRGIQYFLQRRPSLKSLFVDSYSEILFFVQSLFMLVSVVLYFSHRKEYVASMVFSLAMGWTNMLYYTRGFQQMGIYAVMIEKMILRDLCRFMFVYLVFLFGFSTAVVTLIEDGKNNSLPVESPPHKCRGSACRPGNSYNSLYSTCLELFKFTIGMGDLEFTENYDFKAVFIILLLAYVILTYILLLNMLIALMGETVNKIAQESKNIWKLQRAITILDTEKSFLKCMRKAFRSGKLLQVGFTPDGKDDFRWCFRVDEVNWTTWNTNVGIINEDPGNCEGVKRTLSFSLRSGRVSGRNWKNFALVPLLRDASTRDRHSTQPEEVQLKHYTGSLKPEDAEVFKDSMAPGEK
UniProt P59267: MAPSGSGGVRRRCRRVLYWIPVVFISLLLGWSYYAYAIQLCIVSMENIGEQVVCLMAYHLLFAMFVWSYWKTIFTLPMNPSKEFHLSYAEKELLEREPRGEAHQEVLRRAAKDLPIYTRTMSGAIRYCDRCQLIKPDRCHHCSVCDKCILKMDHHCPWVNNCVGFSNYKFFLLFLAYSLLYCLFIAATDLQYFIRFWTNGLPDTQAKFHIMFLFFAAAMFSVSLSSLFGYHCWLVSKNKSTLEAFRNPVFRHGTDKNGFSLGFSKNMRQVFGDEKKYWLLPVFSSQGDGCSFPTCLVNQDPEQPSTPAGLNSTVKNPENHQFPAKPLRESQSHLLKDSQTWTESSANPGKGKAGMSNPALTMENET
UniProt Q80TN5: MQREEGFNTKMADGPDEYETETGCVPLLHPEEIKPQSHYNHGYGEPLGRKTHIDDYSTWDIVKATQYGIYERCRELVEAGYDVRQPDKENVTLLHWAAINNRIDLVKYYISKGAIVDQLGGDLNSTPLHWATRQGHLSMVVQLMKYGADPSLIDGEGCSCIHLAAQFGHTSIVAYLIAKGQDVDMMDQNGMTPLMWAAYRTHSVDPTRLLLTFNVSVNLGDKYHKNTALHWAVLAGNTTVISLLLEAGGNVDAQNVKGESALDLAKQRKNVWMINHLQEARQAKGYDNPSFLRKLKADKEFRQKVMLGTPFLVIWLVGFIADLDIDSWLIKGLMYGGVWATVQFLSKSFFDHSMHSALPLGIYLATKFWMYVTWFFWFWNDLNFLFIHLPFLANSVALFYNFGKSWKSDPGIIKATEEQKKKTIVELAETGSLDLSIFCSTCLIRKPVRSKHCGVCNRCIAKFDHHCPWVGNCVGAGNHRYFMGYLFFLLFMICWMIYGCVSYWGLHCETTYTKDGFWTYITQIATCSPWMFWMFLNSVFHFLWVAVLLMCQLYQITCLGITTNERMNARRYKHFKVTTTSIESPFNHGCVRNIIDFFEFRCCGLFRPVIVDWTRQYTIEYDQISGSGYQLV

Experiment [1] addresses FLAG-tagged TRPV1 (full length) (Rattus norvegicus) (UniProt O35433). Nature of the experiment: co-IP; HEK293T cells co-transfected with FLAG-tagged TRPV1 (or truncates) and GFP-tagged ZDHHCs; immunoprecipitation with anti-Flag antibody; NP-40 lysis buffer, washes with 500 mM NaCl; immunoblotting. For orientation: A western blot detects proteins with antibodies after separation by electrophoresis.

Experiment [2] addresses Flag-tagged TRPV1 C-terminus (aa 687-839) (Rattus norvegicus) (UniProt O35433). The description is as above.
Experiment [3] concerns the target Flag-tagged TRPV1 N-terminus (aa 1-432) (Rattus norvegicus) (UniProt O35433). The description is as above.
Experiment [4] has as its target CsfGFP-tagged TRPV1 (Rattus norvegicus) (UniProt O35433). Nature of the experiment: split reporter; BiFC with split GFP fragments (CsfGFP, NsfGFP) in HEK293T cells, fixed, confocal imaging.
Experiment [5] has as its target TRPV1 (endogenous, mouse DRG neurons) (mouse (endogenous in DRG neurons)) (UniProt Q704Y3). Nature of the experiment: co-IP; native mouse DRG lysate (NP-40 lysis buffer); pulled down with anti-TRPV1 antibody, IgG as negative control; blotted with anti-TRPV1 and anti-ZDHHC4.

No constants are given. Whether binding was seen depends on the method and setting. In cells and extracts the contact can be indirect. Some binding calls cover weakened binding; strength is not graded here. For some of these results: Sequences can lack the tags named with a protein.

As to “GFP-tagged ZDHHC2 (from UniProt P59267 1-366) (enzyme)”, the binding entry in experiment [1] is on record as “no binding”. The same measure, in the same setting: the entry for “GFP-tagged ZDHHC17 (from UniProt Q80TN5 1-632) (enzyme)” is “no binding”.

B1: GFP-tagged ZDHHC12 (enzyme, UniProt Q8VC90 1-267)
chain: MALWPPLNSGMLVRTGHTVLTWGITLVLFLHDTELRQWEEQGELLLPLTFLLLVLSSLLLYLAVSLMDPGYVTTQPQPQGEPKEEQAAMVPQAVPLRRCRHCLVLQPLRARHCRDCRRCVRRYDHHCPWMENCVGERNHPLFVAYLALQLVVLLWGLCLAWSGLQFFQPWGLWLRSTGLLFTTFLLLSFFALVVALLLASHLYLVARNTTTWEFISSHRIAYLRQRTSNPFDRGPTRNLAHFFCGWPSGPWETLSAEEEEEGSSQVV
As to B1, in experiment [1], the binding entry is reported as “no binding”.

B2: GFP-tagged ZDHHC4 (enzyme, UniProt Q9D6H5 1-343)
chain: MDFLVLFLFYLAFLLICVVLICIFTKSQRLKAVVLGGAQVCSRVIPQCLQRAVQTLLHQLFHTRHPTFIVLHLLLQGLVYAEYTCEVFGYCRELEFSLPYLLLPYVLLSVNLVFFTLTCAANPGTITKANESFLLQVYKFDDVMFPKNSRCPTCDLRKPARSKHCRLCDRCVHRFDHHCVWVNNCIGAWNTRYFLIYLLTLTASAATIATVTAAFLLRLVTVSDLYQETYLDDVGHFQAVDTVFLIQHLFLAFPRIVFLLGFVIVLSMLLAGYLCFALYLAATNQTTNEWYKGDWAWCQRWPLVAWSPSAEPRIHQNIHSHGFRSNLREIFLPATPSYKKKEK
As to B2, the binding result in experiment [2], in experiment [1] and in experiment [3] was “binds” each time.

B3: NsfGFP-tagged ZDHHC4 (enzyme, UniProt Q9D6H5 1-343)
chain: MDFLVLFLFYLAFLLICVVLICIFTKSQRLKAVVLGGAQVCSRVIPQCLQRAVQTLLHQLFHTRHPTFIVLHLLLQGLVYAEYTCEVFGYCRELEFSLPYLLLPYVLLSVNLVFFTLTCAANPGTITKANESFLLQVYKFDDVMFPKNSRCPTCDLRKPARSKHCRLCDRCVHRFDHHCVWVNNCIGAWNTRYFLIYLLTLTASAATIATVTAAFLLRLVTVSDLYQETYLDDVGHFQAVDTVFLIQHLFLAFPRIVFLLGFVIVLSMLLAGYLCFALYLAATNQTTNEWYKGDWAWCQRWPLVAWSPSAEPRIHQNIHSHGFRSNLREIFLPATPSYKKKEK
B3: the binding entry in experiment [4] was “binds”.

B4: ZDHHC4 (endogenous, mouse DRG neurons) (enzyme, UniProt Q9D6H5 1-343)
chain: MDFLVLFLFYLAFLLICVVLICIFTKSQRLKAVVLGGAQVCSRVIPQCLQRAVQTLLHQLFHTRHPTFIVLHLLLQGLVYAEYTCEVFGYCRELEFSLPYLLLPYVLLSVNLVFFTLTCAANPGTITKANESFLLQVYKFDDVMFPKNSRCPTCDLRKPARSKHCRLCDRCVHRFDHHCVWVNNCIGAWNTRYFLIYLLTLTASAATIATVTAAFLLRLVTVSDLYQETYLDDVGHFQAVDTVFLIQHLFLAFPRIVFLLGFVIVLSMLLAGYLCFALYLAATNQTTNEWYKGDWAWCQRWPLVAWSPSAEPRIHQNIHSHGFRSNLREIFLPATPSYKKKEK
For the molecule B4, in experiment [5], the binding result is reported as “binds”.

B5: GFP-tagged ZDHHC18 (enzyme, UniProt Q5Y5T2 1-380)
chain: MKDCEYQQISPGAAPPPASPGARRPGPAAPPAPSPGPAPGAPRWSGSGSGSGSLGRRPRRKWEVFPGRNRFYCGGRLMLAGHGGVFALTLLLILSTTILFFVFDCPYLARTLTLAIPIIAAILFFFVMSCLLQTSFTDPGILPRATICEAAALEKQIDNTGSSTYRPPPRTREVMINGQTVKLKYCFTCKMFRPPRTSHCSVCDNCVERFDHHCPWVGNCVGRRNYRFFYAFILSLSFLTAFIFACVVTHLTLLSQGSNFLSALKKTPASVLELVICFFSIWSILGLSGFHTYLVASNLTTNEDIKGSWSSKRGGEASVNPYSHKSIITNCCAVLCGPLPPSLIDRRGFVQSDTALPSPIRSDDPACGAKPDASMVGGHP
Take B5: the binding result in experiment [1] is reported as “no binding”.

B6: GFP-tagged ZDHHC15 (enzyme, UniProt Q8BGJ0 1-337)
chain: MRRGWKMALSGGLRCCRRVLSWVPVLVIVLVVLWSYYAYVFELCLVTVLSPAEKVIYLILYHAIFVFFAWTYWKSIFTLPQQPNQKFHLSYTDKERYKNEERPEVQKQMLVDMAKKLPVYTRTGSGAVRFCDRCHLIKPDRCHHCSVCAMCVLKMDHHCPWVNNCIGFSNYKFFLQFLAYSVLYCLYIATTVFSYFIKYWRGELPSVRSKFHVLFLLFVACMFFVSLVILFGYHCWLVSRNKTTLEAFCTPVFTSGPEKNGFNLGFIKNIQQVFGDNKKFWLIPIGSSPGDGHSFPMRSMNESQNPLLANEEPWEDNEDDSRDYPEGSSSLAVESET
For the molecule B6, the binding entry in experiment [1] is “no binding”.
